Results as given in article PMC12040169 (PLOS Biology, 2025).
Some of the results follow.

These molecules were tested on T1, C. trachomatis L2/434/Bu expressing GFP (CTL2-GFP). Conditions: total inclusion area; 28.5 h, 10 µM; inhibitor.
T1 construct: L2/434/Bu GFP intracellular growth in HeLa cells
Design: species or system HeLa; C. trachomatis total inclusion area by high-content imaging, normalised to DMSO
In short: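 Bulk GFP and resorufin signals were read first. Wells were then fixed, stained with Hoechst and imaged to detect GFP inclusions and host nuclei. MICs followed the previously described calculation.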

Compound	% of control remaining
Cc1nn(C)c(C)c1C1CCCN1CC(=O)NCc1ccccn1 (centres unmarked) [CBK305501]	57.4963
NC(=O)c1ccc(C#Cc2ccccc2)o1 [CBK009809]	63.6197
O=C(CCc1cccc(F)c1)Nc1cnc(-c2ccc(F)cc2)c(-c2ccoc2)n1 [CBK037077]	116.415
CN1CCN(CCC(=O)N/N=C/c2ccc3c(c2)OCO3)CC1 [CBK261498]	96.3341
CC(C)c1ccc(OCC(=O)NCc2ccccn2)c(Br)c1 [CBK265910]	105.453
CN(CC(=O)N(C)CC(F)(F)F)Cc1cccnc1 [CBK282075]	102.099
Oc1cccc(-c2nccnc2NCc2ccc(Cl)cc2)c1 [CBK037650]	102.443
Cc1cnc2n(c1=O)C(CC(=O)NCc1ccncc1)CS2 (centres unmarked) [CBK287671]	102.876
Cc1noc(C)c1CN1CCC(c2ccccc2)C1 (centres unmarked) [CBK304451]	94.3118
Cc1nc(CCNC(=O)N(Cc2ccsc2)C2CC2)nc2c1CCCC2 [CBK307674]	74.0913
COc1ccnc(Sc2ccc(Cl)cc2)c1C#N [CBK018571]	8.368
O=[N+]([O-])c1ccc2c(c1)C(O)n1nc(-c3ccncc3)nc1S2 (centres unmarked) [CBK288533]	77.3449
COc1ccc(S(=O)(=O)N2CCN(C(=O)c3cc(-c4ccncc4)nc4ccc(Br)cc34)CC2)cc1 [CBK267750]	78.6701
CC(Sc1ccccc1)C(=O)NCCCN1CCOCC1 (centres unmarked) [CBK269214]	106.864
CCc1cccc(NC(=O)NCCC2=CCCCC2)c1 [CBK045009]	82.1425
COc1ccc(CNC(=O)c2cc(S(=O)(=O)N3CCCC3)cn2C)cc1 [CBK304637]	66.9064
Cc1cc(NC(=O)c2ccc3[nH]ccc3c2)c2ccccc2n1 [CBK116270]	78.8456
CN(C)S(=O)(=O)c1ccc(C(=O)Nc2ccc(Br)cc2C(=O)c2ccccc2)cc1 [CBK263243]	67.0807
COc1ccc(OC)c(NC(=O)C(C)Oc2ccccc2OC)c1 (centres unmarked) [CBK269766]	51.431
O=C(CCNc1n[nH]c(=O)[nH]c1=O)N/N=C/c1ccc(C(F)(F)F)cc1 [CBK263518]	104.613
Cc1ccc(C(=O)Nc2nnc(C3=COCCO3)o2)cc1C [CBK287413]	88.8559
CCOC(=O)c1c(NC(=O)C2C3CCC(C3=C(C)C)C2C(=O)O)sc2c1CCCCC2 (centres unmarked) [CBK265439]	93.9692
COCC(=O)N1CCc2sccc2C1c1ccc(NCc2ccccc2F)cc1 (centres unmarked) [CBK286446]	109.907
